Reference: PubChem BioAssay (NCATS)
Inconclusive means that the source gave no clear call. Such entries were picked first, then a sample of the others. No potency is given beside an inconclusive call; the fits are too rough. Calls of active or inactive are those of the source. Calls come from the whole dose curve; as a rule, active = well fitted curve in the direction sought with a large enough effect; inconclusive = small, poorly fitted or top-dose-only effect, or another doubt; inactive = no such curve, though single readings can be large; an effect the other way counts as inactive or inconclusive.

Experiment: qHTS of pediatric cancer cell lines to identify multiple opportunities for drug repurposing: Primary screen for NB1643 cells (AID 1347099); note: nearly all actives have a fitted effect of over 50% in size
Settings: NB1643 neuroblastoma viability, CellTiter-Glo luminescence, 48 h; series mostly up to 46 µM
How it was run: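 CRCs from 8- or 11-point titrations (lowest final 0.59 nM NPC, 0.78 nM MIPE). Cell viability: CellTiter-Glo after 48 h incubation, 15 min room-temperature development, luminescence imaging.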
Potency is the fitted concentration of half-maximal effect; tags give direction and shape of the fitted curve.

Compound	Potency
CN(C)C(=O)Oc1cc(OC(=O)N(C)C)cc(C(O)CNC(C)(C)C)c1 (stereo unspecified)	inactive
CCCN(CCC)c1c([N+](=O)[O-])cc(S(N)(=O)=O)cc1[N+](=O)[O-]	active: 48.6 µM
C1CCC(NC2CCCCC2)CC1	inactive
CCN1CCN(C(=O)Cc2ccc(Nc3ncc(F)c(Nc4ccc(C(=O)Nc5ccccc5Cl)cc4)n3)cc2)CC1	active: 5.9 µM
CC[C@H]1C=CC=CC[C@@H](C)[C@H](O)[C@@](C)(O)C(=O)[C@@H](C)[C@H](O)[C@@H](C)C(=O)[C@@H](C)[C@H](O)[C@@H](C)C=CC(=O)O[C@@H]2[C@@H](C)[C@H](CC1)O[C@]1(CC[C@H](C)[C@H](C[C@@H](C)O)O1)[C@H]2C	inconclusive [cytotoxic, partial curve, poor fit]
CN(C)CCc1c[nH]c2ccccc12	inactive
C[C@@H]1O[C@@H](O[C@@H]2C=C3CC[C@@H]4[C@H](CC[C@]5(C)[C@@H](c6ccc(=O)oc6)CC[C@]45O)[C@@]3(C)CC2)[C@H](O)[C@H](O)[C@H]1O	active: 0.0067 µM

Experiment: qHTS of pediatric cancer cell lines to identify multiple opportunities for drug repurposing: Primary screen for LAN-5 cells (AID 1347100)
Settings: LAN-5 neuroblastoma viability, CellTiter-Glo luminescence, 48 h; series mostly up to 46 µM
How it was run: (§1)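 Cells (500-1,000/well) in growth media were settled 5 h at 37 degrees C, then given compounds for 48 h. Viability was read as CellTiter-Glo luminescence. Primary runs used MIPE at 11 points (0.78 nM-46 µM) and NPC at 8 points (0.59 nM-46 µM); follow-ups used 11 points.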

Compound	Potency
C[N+]1(CCF)[C@@H]2CC[C@H]1CC(OC(=O)C(O)(c1ccccc1)c1ccccc1)C2 (stereo partly specified)	inactive
CC1OC(C)OC(C)O1 (stereo unspecified)	inactive
CC(=O)[O][Hg][c]1ccccc1	inconclusive [cytotoxic, single point]
CCCN(CCC)c1c([N+](=O)[O-])cc(S(N)(=O)=O)cc1[N+](=O)[O-]	inconclusive [cytotoxic, single point]
CCNC(=O)C[C@@H]1N=C(c2ccc(Cl)cc2)c2cc(OC)ccc2-n2c(C)nnc21	active: 2.35 µM
CC[C@H]1C=CC=CC[C@@H](C)[C@H](O)[C@@](C)(O)C(=O)[C@@H](C)[C@H](O)[C@@H](C)C(=O)[C@@H](C)[C@H](O)[C@@H](C)C=CC(=O)O[C@@H]2[C@@H](C)[C@H](CC1)O[C@]1(CC[C@H](C)[C@H](C[C@@H](C)O)O1)[C@H]2C	active: 18.7 µM
C[C@](O)(CS(=O)(=O)c1ccc(F)cc1)C(=O)Nc1ccc(C#N)c(C(F)(F)F)c1	active: 2.96 µM
CN(C)C(=S)SSC(=S)N(C)C	active: 0.266 µM
C[N+]1(CCC(C(N)=O)(c2ccccc2)c2ccccc2)CCCCC1	inactive

Experiment: qHTS of pediatric cancer cell lines to identify multiple opportunities for drug repurposing: Primary screen for BT-12 cells (AID 1347101); note: nearly all actives have a fitted effect of over 25% in size
Settings: BT-12 viability, CellTiter-Glo luminescence, 48 h; series mostly up to 57.3 µM
How it was run: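 Cells (500-1,000/well) rested 5 h, then received compounds for 48 h; metabolically active cells were measured by CellTiter-Glo luminescence. Final concentrations spanned up to 46 µM (MIPE, 11-point) or 0.59 nM-46 µM (NPC, 8-point) in primary screens, 11-point in follow-ups.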

Compound	Potency
COc1ccc2[nH]cc(CCN(C(C)C)C(C)C)c2c1	inactive
CCCN(CCC)c1c([N+](=O)[O-])cc(S(N)(=O)=O)cc1[N+](=O)[O-]	active: 28.2 µM
CCNC(=O)C[C@@H]1N=C(c2ccc(Cl)cc2)c2cc(OC)ccc2-n2c(C)nnc21	inconclusive [cytotoxic, partial curve]
CCN1CCN(C(=O)Cc2ccc(Nc3ncc(F)c(Nc4ccc(C(=O)Nc5ccccc5Cl)cc4)n3)cc2)CC1	active: 19.3 µM
N=c1c2c(-c3ccccc3)c(-c3ccccc3)n(Cc3ccccc3)c2ncn1C1CCC(O)CC1 (stereo unspecified)	active: 6.85 µM
CC[C@H]1C=CC=CC[C@@H](C)[C@H](O)[C@@](C)(O)C(=O)[C@@H](C)[C@H](O)[C@@H](C)C(=O)[C@@H](C)[C@H](O)[C@@H](C)C=CC(=O)O[C@@H]2[C@@H](C)[C@H](CC1)O[C@]1(CC[C@H](C)[C@H](C[C@@H](C)O)O1)[C@H]2C	active: 0.0061 µM
C[C@](O)(CS(=O)(=O)c1ccc(F)cc1)C(=O)Nc1ccc(C#N)c(C(F)(F)F)c1	inconclusive [cytotoxic, partial curve]
CCN1CCCC1CNC(=O)C(O)(c1ccccc1)c1ccccc1 (stereo unspecified)	inactive
O=C(O)COc1nc(Cl)c(Cl)cc1Cl	inconclusive [cytotoxic, single point]
C[C@@H]1O[C@@H](O[C@@H]2C=C3CC[C@@H]4[C@H](CC[C@]5(C)[C@@H](c6ccc(=O)oc6)CC[C@]45O)[C@@]3(C)CC2)[C@H](O)[C@H](O)[C@H]1O	active: 0.0031 µM
Oc1c(Br)cc(Br)cc1Br	inactive
CCN(CCO)CCn1c(Cc2ccccc2)nc2c1c(=O)n(C)c(=O)n2C	inactive

Experiment: qHTS of pediatric cancer cell lines to identify multiple opportunities for drug repurposing: Primary screen for Rh18 cells (AID 1347102); note: nearly all actives have a fitted effect of over 65% in size
Settings: Rh18 rhabdomyosarcoma viability, CellTiter-Glo luminescence, 48 h; series mostly up to 46 µM
How it was run: as §1

Compound	Potency
COc1cc(N)c(Cl)cc1C(=O)NC1CN2CCC1CC2 (stereo unspecified)	inactive
CC(=O)[O][Hg][c]1ccccc1	active: 2.66 µM
CN(C)C(=O)Oc1cc(OC(=O)N(C)C)cc(C(O)CNC(C)(C)C)c1 (stereo unspecified)	inactive
CCCN(CCC)c1c([N+](=O)[O-])cc(S(N)(=O)=O)cc1[N+](=O)[O-]	inconclusive [cytotoxic, single point]
CCNC(=O)C[C@@H]1N=C(c2ccc(Cl)cc2)c2cc(OC)ccc2-n2c(C)nnc21	inconclusive [cytotoxic, partial curve]
CCN1CCN(C(=O)Cc2ccc(Nc3ncc(F)c(Nc4ccc(C(=O)Nc5ccccc5Cl)cc4)n3)cc2)CC1	active: 8.33 µM
N=c1c2c(-c3ccccc3)c(-c3ccccc3)n(Cc3ccccc3)c2ncn1C1CCC(O)CC1 (stereo unspecified)	inconclusive [cytotoxic, partial curve]
CC[C@H]1C=CC=CC[C@@H](C)[C@H](O)[C@@](C)(O)C(=O)[C@@H](C)[C@H](O)[C@@H](C)C(=O)[C@@H](C)[C@H](O)[C@@H](C)C=CC(=O)O[C@@H]2[C@@H](C)[C@H](CC1)O[C@]1(CC[C@H](C)[C@H](C[C@@H](C)O)O1)[C@H]2C	active: 26.4 µM
C[C@](O)(CS(=O)(=O)c1ccc(F)cc1)C(=O)Nc1ccc(C#N)c(C(F)(F)F)c1	inconclusive [cytotoxic, partial curve]
CC(N[C@H]1C[C@H]1c1ccccc1)c1ccc2c(c1)OCCO2 (stereo partly specified)	inactive
CN(C)C(=S)SSC(=S)N(C)C	active: 0.15 µM
C[C@@H]1O[C@@H](O[C@@H]2C=C3CC[C@@H]4[C@H](CC[C@]5(C)[C@@H](c6ccc(=O)oc6)CC[C@]45O)[C@@]3(C)CC2)[C@H](O)[C@H](O)[C@H]1O	inconclusive [cytotoxic, full curve]
C[N+]1(CCC(C(N)=O)(c2ccccc2)c2ccccc2)CCCCC1	inactive
